Source: PubChem BioAssay AID1345082 (National Center for Advancing Translational Sciences (NCATS), 2018)
Screen size: about 94,000 compounds; about 4,000 (4.3%) were called active. This list was built around the results that the source calls inconclusive (neither active nor inactive); the mix of calls is not that of the screen. The call rests on the fitted dose curve; in most records, active means well fitted inhibition curve with a large enough effect; inconclusive means small, poorly fitted or top-dose-only effect; inactive means no such curve, though single readings can be large or run the other way. Potencies beside an inconclusive call are fits to weak or partial responses and may not hold up.

test: Cytotoxic Profiling in NIH 3T3 Cell Line of Diverse Libraries Using Quantitative High-Throughput Screening; conditions: NIH 3T3 viability, CellTiter-Glo ATP luminescence, 48-72 h; activity change, negative = cytotoxicity: at 96.7 µM (top of the series); series mostly up to 96.7 µM; further: nearly all actives have a fitted effect of over 55% in size
In short: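 Cytotoxicity was measured by CellTiter-Glo ATP luminescence after 48 or 72 h compound exposure at 37 °C. Mouse NIH 3T3 fibroblasts were seeded at 400 cells/well and dosed by 23 nL pin transfer.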
On the % scale 0 is the no-effect control and ±100 the full control effect; potency means the concentration at half of the fitted maximal effect; tags describe the fitted curve by direction and shape.

Row | SMILES | Potency | outcome | activity change, negative = cytotoxicity
1 | O=C(O)c1cc(Br)cc(S(=O)(=O)NCc2ccccn2)c1 | inconclusive: 70.8 µM [inhibitor, single point] |  | 
2 | CCNC(=O)O[C@H]1C(=O)N(C)C2(CCN([S+](=O)([O-])c3cccs3)CC2)[C@@H]1C(=O)OCC | inconclusive: 79.4 µM [inhibitor, partial curve, poor fit] |  | 
3 | OC(c1cccc(C(F)(F)F)c1)c1nc(Nc2cccc(Cl)c2)n[nH]1 (stereo not drawn) | active: 50.1 µM |  | 
4 | Cc1ccc(C(=O)N2CC(c3nnc(-c4ccc(C)cc4)o3)C3(CCOCC3)C2)cc1 (stereo not drawn) |  | inactive | 
5 | CCOC(=O)[C@@H]1CN(C(=O)OCC(C)C)[C@H]2c3ccc(OC)cc3O[C@@H]12 | active: 39.8 µM |  | 
6 | COc1ccc(-c2c(C(=O)NC3CC3)nc3sccn23)cc1 |  |  | inactive: -6.41% [at 138 µM]
7 | COc1ccc(-c2cc(N3CCC(NC(=O)Cc4cccc(OC)c4)CC3)n[nH]2)cc1 | inconclusive: 44.7 µM [inhibitor, partial curve, poor fit] |  | 
8 | Cc1ccc(C(=O)N2CCCCC23Cc2ccccc2NC3=O)cc1 (stereo not drawn) | inconclusive: 89.1 µM [inhibitor, partial curve] |  | 
9 | COc1ccc(NC(=O)c2ccc3c(c2)NC(C)(COCC2CC2)CO3)cc1OC (stereo not drawn) | inconclusive: 100 µM [inhibitor, single point] |  | 
10 | COc1ccc(C(=O)N[C@H]2CCN3C(=O)c4cc(Br)ccc4NC(=O)[C@@H]3C2)cc1 |  | inactive | 
11 | COc1ccc(NC(=O)N2c3ccccc3CC2c2nc(C3CC3)no2)c(C)c1 (stereo not drawn) |  |  | inactive: -26.9%
12 | Oc1ccc(-c2nc(C3CC3)nc3c2CN(Cc2ccc(C(F)(F)F)cc2)CC3)cc1 | inconclusive: 70.8 µM [inhibitor, single point] |  | 
13 | Cc1noc(C)c1S(=O)(=O)N[C@@H]1CN(Cc2ccccc2)C[C@H]1CN(C)C |  |  | inactive: -2.29%
14 | Fc1cc(Nc2ncc(-c3cccnc3)c3c2OCC3)cc(N2CCOCC2)c1 | inconclusive: 22.4 µM [inhibitor, full curve, poor fit] |  | 
15 | O=C(NC[C@H]1OC[C@@H](NCc2ccccc2O)[C@@H]1O)c1ccc(F)cc1 |  | inactive [at 174 µM] | 
16 | O=C(CC1CCCC1)N1CCC(N2CC(OCC3CC3)C23CCOCC3)CC1 (stereo not drawn) |  |  | inactive: -24.4%
17 | CC(C)CN(Cc1cccnc1)C1CN(S(=O)(=O)Cc2ccccc2F)C1 |  |  | inactive: -27.1%
18 | COc1cc(F)cc(-c2ncc3c(n2)OCCN(C)C3=O)c1 | inconclusive: 56.2 µM [inhibitor, partial curve, poor fit] |  | 
19 | CNC(=O)c1cc(-c2ccc(N3CCOCC3)cc2)cc2c1OCCN2Cc1cccnc1 | inconclusive: 50.1 µM [inhibitor, partial curve, poor fit] |  | 
20 | CC(C)c1nc2nccc(-c3cccs3)n2n1 | inconclusive: 56.2 µM [inhibitor, partial curve, poor fit] |  | 
21 | COCC1CN(C)CC12CCN(C(=O)c1ccc(OC(F)(F)F)cc1)CC2 (stereo not drawn) | inconclusive: 50.1 µM [inhibitor, single point] |  | 
22 | O=S(=O)(c1ccc(F)c(F)c1)N1CCCC(Cn2c(C3CC3)nc3cccnc32)C1 (stereo not drawn) | inconclusive: 63.1 µM [inhibitor, partial curve, poor fit] |  | 

Row | SMILES | Potency | outcome | activity change, negative = cytotoxicity
23 | O=C1c2cnc(-c3cccc(O)c3)nc2OCCN1c1cccc(C(F)(F)F)c1 | inconclusive: 4.47 µM [inhibitor, full curve, poor fit] |  | 
24 | COc1ccc(NC(=O)c2ccc3c(c2)N(C)C2CCCCN2C3=O)cc1Cl (stereo not drawn) | inconclusive: 11.2 µM [inhibitor, full curve, poor fit] |  | 
25 | CCOc1ccc(CN(Cc2cccc(Oc3ncccn3)c2)C2CC2)cc1 | inconclusive: 50.1 µM [inhibitor, partial curve, poor fit] |  | 
26 | COc1ccccc1Cn1c(=O)c(C(=O)NCC(F)(F)F)nc2cccnc21 |  |  | inactive: -31.3%
27 | O=C(Nc1ccc(F)cc1)c1cccn2nccc12 |  |  | inactive: -15.4% [at 138 µM]
28 | CN1CCN(c2cc(=O)c3ccnc(N4CCOCC4)c3o2)CC1 | inconclusive: 4.47 µM [inhibitor, full curve, poor fit] |  | 
29 | O=C1NCc2ccccc2CC12CCN(Cc1ccc(Cl)s1)CC2 | inconclusive: 70.8 µM [inhibitor, single point] |  | 
30 | Cc1ccc(NC(=O)Cn2c(N3CCC(C)CC3)nc(C)cc2=O)c(C)c1 | inconclusive: 44.7 µM [inhibitor, partial curve, poor fit] |  | 
31 | CCCCCN(CCC(=O)NCCCOC)C(=O)c1ccoc1 | inconclusive: 56.2 µM [inhibitor, partial curve, poor fit] |  | 
32 | CC(C)NC(=O)c1cc(-c2ccccc2F)cc2c1OCCN2Cc1cccnc1 | active: 79.4 µM |  | 
33 | CN1C(=O)c2cncnc2OCC1CNC(=O)Cc1cccs1 (stereo not drawn) |  |  | inactive: -1.68% [at 138 µM]
34 | O=C(Nc1ccccc1)O[C@@H]1CO[C@H]2[C@@H]1OC[C@@H]2NC(=S)Nc1ccccc1 |  |  | inactive: -18.3% [at 138 µM]
35 | c1ccc(-c2nnc3n2CCN(Cc2ccc4ccccc4c2)C3)cc1 | inconclusive: 31.6 µM [inhibitor, partial curve, poor fit] |  | 
36 | CC(NC(=O)c1ccc2oc(-c3ccc(C(F)(F)F)cc3)nc2c1)c1cnn(C)c1 (stereo not drawn) | inconclusive: 39.8 µM [inhibitor, partial curve] |  | 
37 | O=C(NCCc1ccccc1)N1CCC(c2noc(-c3ccccc3)n2)C1 (stereo not drawn) | inconclusive: 22.4 µM [inhibitor, partial curve] |  | 
38 | COc1ccc(Cl)cc1NC(=O)CN1C(=O)NC2(CCC(C)CC2)C1=O (stereo not drawn) | inconclusive: 56.2 µM [inhibitor, partial curve, poor fit] |  | 
39 | O=C(N1CCOCC1)N1C2CCC1CN(c1ccc(C(F)(F)F)cc1)C2 | active: 14.1 µM |  | 
40 | O=C(Cc1ccc(C(F)(F)F)cc1)N1CC(COc2ccccc2)C2(C1)CN(C(=O)c1cn[nH]c1)C2 (stereo not drawn) | inconclusive: 50.1 µM [inhibitor, partial curve, poor fit] |  | 
41 | CCC(=O)N1CCC2(CCC(=O)N(CC3CC3)CC2)CC1 |  |  | inactive: 2.06%
42 | CCC1=C(C(=O)OC)C(c2ccccc2C)N2C(CC(=O)NC3CC3)=CSC2=N1 (stereo not drawn) |  |  | inactive: -32.7%
43 | CC(C)CCN1CCc2c(sc3ncnc(N4CCOCC4)c23)C1 | inconclusive: 50.1 µM [inhibitor, partial curve, poor fit] |  | 
